Tests used:
[1] = biological target: T1, α2A Human Adrenergic Receptor (Homo sapiens, UniProt P08913); test: cell-based
T1 sequence (P08913 1-465): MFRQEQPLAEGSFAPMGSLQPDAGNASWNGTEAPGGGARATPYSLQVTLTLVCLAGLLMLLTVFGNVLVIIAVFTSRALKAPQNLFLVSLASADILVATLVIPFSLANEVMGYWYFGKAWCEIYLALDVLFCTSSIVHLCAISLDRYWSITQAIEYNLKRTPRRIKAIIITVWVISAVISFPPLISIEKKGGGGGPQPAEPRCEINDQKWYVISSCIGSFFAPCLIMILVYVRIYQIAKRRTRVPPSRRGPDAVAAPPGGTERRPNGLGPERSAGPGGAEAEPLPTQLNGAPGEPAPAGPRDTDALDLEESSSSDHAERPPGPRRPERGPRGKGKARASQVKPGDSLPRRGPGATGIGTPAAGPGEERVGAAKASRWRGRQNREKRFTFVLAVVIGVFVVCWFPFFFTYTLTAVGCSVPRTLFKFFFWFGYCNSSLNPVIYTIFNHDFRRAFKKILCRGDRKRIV

[2] = biological target: T1, α2A Human Adrenergic Receptor; conditions: functional cAMP assay
[3] = biological target: T1, α2A Human Adrenergic Receptor; test: Equilibrium competition binding, [3H] rauwolscine, membranes of transfected LM(tk-) cells

SMILES: CCc1c(NC2=NCCN2)ccc2nc[nH]c12 [Example 6, 4-Ethyl-5-(2-imidazolin-2-ylamino)Benzimidazole]
- EC50 [1]: 6.76 nM
- I.A Alpha-2 A [2]: 1.00
- Ki [3]: 4.68 nM

SMILES: Brc1cc(NC2=NCCN2)cc2[nH]cnc12 [Example 51, 7-Bromo-5-(2-imidazolin-2-ylamino)Benzimidazole]
- EC50 [1]: 97.7 nM
- I.A Alpha-2 A [2]: 0.90
- Ki [3]: 26.3 nM

SMILES: CCc1nc2ccc(NC3=NCCN3)c(Br)c2[nH]1 [Example 43, 2-Ethyl-4-bromo-5-(2-imidazolin-2-ylamino)Benzimidazole]
- EC50 [1]: 22.9 nM
- I.A Alpha-2 A [2]: 1.00
- Ki [3]: 7.24 nM

SMILES: CCCCc1cc(NC2=NCCN2)cc2[nH]cnc12 [Example 56, 7-Butyl-5-(2-imidazolin-2-ylamino)Benzimidazole]
- EC50 [1]: 501 nM
- I.A Alpha-2 A [2]: 0.70
- Ki [3]: 21.9 nM

SMILES: c1nc2ccc(NC3=NCCN3)cc2[nH]1 [Example 1, 5-(2-Imidazolin-2-ylamino)Benzimidazole]
- EC50 [1]: 57.5 nM
- I.A Alpha-2 A [2]: 1.00
- Ki [3]: 18.2 nM

SMILES: CC(C)c1nc2ccc(NC3=NCCN3)c(Br)c2[nH]1 [Example 44, 2-Isopropyl-4-bromo-5-(2-imidazolin-2-ylamino)Benzimidazole]
- EC50 [1]: 3.98 nM
- I.A Alpha-2 A [2]: 1.00
- Ki [3]: 2.95 nM

SMILES: OCCn1cnc2ccc(NC3=NCCN3)c(Br)c21 [Example 39, 3-(2-Hydroxyethyl)-4-bromo-5-(2-imidazolin-2-ylamino)Benzimidazole]
- EC50 [1]: 24.5 nM
- I.A Alpha-2 A [2]: 0.90
- Ki [3]: 43.7 nM

SMILES: Clc1c(NC2=NCCN2)ccc2nc[nH]c12 [Example 3, 4-Chloro-5-(2-imidazolin-2-ylamino)Benzimidazole]
- EC50 [1]: 0.661 nM
- I.A Alpha-2 A [2]: 1.00
- Ki [3]: 759 nM

SMILES: FC(F)(F)c1nc2ccc(NC3=NCCN3)c(Br)c2[nH]1 [Example 46, 2-Trifluoromethyl-4-bromo-5-(2-imidazolin-2-ylamino)Benzimidazole]
- EC50 [1]: 38.9 nM
- I.A Alpha-2 A [2]: 1.00
- Ki [3]: 45.7 nM

SMILES: Cc1cc(NC2=NCCN2)c(Br)c2[nH]cnc12 [Example 59, 4-Bromo-7-methyl-5-(2-imidazolin-2-ylamino)Benzimidazole]
- EC50 [1]: 0.832 nM
- I.A Alpha-2 A [2]: 1.00
- Ki [3]: 0.977 nM

SMILES: CC(C)Cn1cnc2ccc(NC3=NCCN3)c(Br)c21 [Example 24, 3-Isobutyl-4-bromo-5-(2-imidazolin-2-ylamino)Benzimidazole]
- EC50 [1]: 45.7 nM
- I.A Alpha-2 A [2]: 1.00
- Ki [3]: 3.31 nM
